Where a name gives a salt, the structure may show the parent alone. The list shows a part of the results. The data scatter; read single values as rough.
What was measured:
Assay in all cases: ALDHbr (CSC) cell proportion score relative to DMSO vehicle (ratio to DMSO); breast (SUM159) / gastric (MKN45) / pancreatic (PANC1) / colon cancer lines; ALDHbr cells have high ALDH activity and are rich in cancer stem cells (CSC); higher = more CSC (ALDHbr) cells remaining
Details in all cases: 10 µM; 72 h
[1] = tested on: MKN45
[2] = tested on: PANC1
[3] = tested on: SUM159
[4] = tested on: T84
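Also: High-content imaging of ALDEFLUOR-stained cells with Hoechst-labelled nuclei in 384-well plates, triplicate wells, scored as Z-score against 0.1% DMSO vehicle, negative meaning fewer ALDHbr cells.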

| SMILES | ALDHbr [1] | ALDHbr [2] | ALDHbr [3] | ALDHbr [4] |
| --- | --- | --- | --- | --- |
| Cc1cc2c(s1)Nc1ccccc1N=C2N1CCN(C)CC1 [Olanzapine] | 1.22 | 0.799 | 0.992 | 0.882 |
| CC1(C)O[C@@H]2[C@@H](CO[C@@]3(COS(N)(=O)=O)OC(C)(C)O[C@@H]23)O1 [Topiramate] | 1.03 | 0.912 | 0.751 | 0.85 |
| O=C(O)c1cccnc1 [Niacin] | 1.2 | 0.764 | 1.24 | 1.26 |
| CCN(CCCCOC(=O)c1ccc(OC)c(OC)c1)C(C)Cc1ccc(OC)cc1 (stereo not given) [Mebeverine hydrochloride] | 1.62 | 0.747 | 0.937 | 0.867 |
| C[C@]12C=CC(=O)C=C1CC[C@@H]1[C@@H]2[C@@H](O)C[C@@]2(C)[C@H]1CC[C@]2(O)C(=O)CO [Prednisolone] | 1.02 | 0.605 | 1.16 | 0.885 |
| CNCC[C@@H](Oc1cccc2ccccc12)c1cccs1 [(R)-Duloxetine hydrochloride] | 1.3 | 1.3 | 0.64 | 0.547 |
| CN(C)C(=O)C(CCN1CCC(O)(c2ccc(Cl)cc2)CC1)(c1ccccc1)c1ccccc1 [Loperamide hydrochloride] | 0.78 | 0.667 | 0.705 | 0.148 |
| CC(C)(C(=O)O)c1ccc(C(O)CCCN2CCC(C(O)(c3ccccc3)c3ccccc3)CC2)cc1 (stereo not given) [Fexofenadine hydrochloride] | 1.09 | 0.934 | 0.881 | 1.06 |
| C#C[C@]1(O)CC[C@H]2[C@@H]3CCC4=CC(=O)CC[C@@H]4[C@H]3CC[C@@]21CC [Norgestrel-(-)-D] | 0.682 | 0.841 | 1.17 | 0.925 |
| Clc1ccc(CSC(Cn2ccnc2)c2ccc(Cl)cc2Cl)cc1 (stereo not given) [Sulconazole nitrate] | 0.918 | 1.72 | 1.83 | 0.707 |
| C=C1/C(=C\C=C2/CCC[C@]3(C)[C@@H]([C@H](C)/C=C/[C@@H](O)C4CC4)CC[C@@H]23)C[C@@H](O)C[C@@H]1O [Calcipotriene] | 0.836 | 1.03 | 0.792 | 0.66 |
| O=C(NCC1CCCCN1)c1cc(OCC(F)(F)F)ccc1OCC(F)(F)F (stereo not given) [Flecainide acetate] | 0.936 | 0.801 | 0.947 | 0.837 |
| CC=C(C)C(=O)OC1C(OC(C)=O)C2(CO)C(O)CC3(C)C(=CCC4C5(C)CCC(OC6OC(C(=O)O)C(OC7OC(CO)C(O)C(O)C7O)C(O)C6OC6OC(CO)C(O)C(O)C6O)C(C)(CO)C5CCC43C)C2CC1(C)C (stereo not drawn) [Beta-Escin] | 0.946 | 0.787 | 0.452 | 0.761 |
| CC(C)(C#N)c1cc(Cn2cncn2)cc(C(C)(C)C#N)c1 [Anastrozole] | 1.08 | 0.989 | 1.34 | 1.09 |
| CCCC(=O)Nc1ccc(OCC(O)CNC(C)C)c(C(C)=O)c1 (stereo not given) [Acebutolol hydrochloride] | 0.97 | 0.954 | 1.4 | 1.02 |
| CC(COc1ccccc1)NC(C)C(O)c1ccc(O)cc1 (stereo not given) [Isoxsuprine hydrochloride] | 1.26 | 0.761 | 1.86 | 1.09 |
| CCCCNc1c(C(=O)OCC)c(C)nc2c1cnn2CC [Tracazolate hydrochloride] | 0.609 | 0.214 | 0.865 | 0.964 |
| CCCCC(C)(O)C/C=C/[C@H]1[C@H](O)CC(=O)[C@@H]1CCCCCCC(=O)OC (mixture of isomers) [Misoprostol] | 1.04 | 0.912 | 1.47 | 0.873 |
| Cc1c(-c2ccccc2)oc2c(C(=O)OCCN3CCCCC3)cccc2c1=O [Flavoxate hydrochloride] | 1.05 | 0.948 | 0.995 | 1.21 |
| NS(=O)(=O)c1cc2c(cc1Cl)NC(CC1CCCC1)NS2(=O)=O (stereo not given) [Cyclopenthiazide] | 1.05 | 0.946 | 0.943 | 1.02 |
| Cn1c(=O)c2c(ncn2CC(=O)O)n(C)c1=O [Acefylline] | 1.11 | 0.846 | 0.974 | 0.869 |
| CCOC(=O)Nc1ccc2c(c1)N(C(=O)CCN1CCOCC1)c1ccccc1S2 [Moricizine hydrochloride] | 1.4 | 0.809 | 0.869 | 1.03 |
| NC(=O)c1cc[n+](CC2=C(C(=O)[O-])N3C(=O)[C@@H](NC(=O)[C@@H](c4ccccc4)S(=O)(=O)O)[C@H]3SC2)cc1 [Cefsulodin sodium salt] | 1.01 | 0.908 | 0.938 | 0.774 |
| O=C1c2ccccc2S(=O)(=O)N1CCCCN1CCN(c2ncccn2)CC1 [Ipsapirone] | 0.966 | 0.931 | 0.886 | 0.81 |
| CCC1(C)CC(=O)NC1=O (stereo not given) [Ethosuximide] | 1.06 | 0.784 | 1.06 | 0.997 |
| CN(C)[C@@H]1C(=O)C(C(=O)NCNCCCC[C@H](N)C(=O)O)=C(O)[C@@]2(O)C(=O)C3=C(O)c4c(O)cccc4[C@@](C)(O)[C@H]3C[C@@H]12 [Lymecycline] | 1.21 | 0.618 | 0.845 | 1.02 |
| Cc1ccnc2c1NC(=O)c1cccnc1N2C1CC1 [Nevirapine] | 1.19 | 0.99 | 0.868 | 0.921 |
| C[C@@H]1CCC[C@H](C)N1NC(=O)c1ccc(Cl)c(S(N)(=O)=O)c1 [Clopamide] | 0.945 | 0.862 | 1.21 | 1.13 |

| SMILES | ALDHbr [1] | ALDHbr [2] | ALDHbr [3] | ALDHbr [4] |
| --- | --- | --- | --- | --- |
| C[C@H]1[C@H](NC(=O)/C(=N\OC(C)(C)C(=O)O)c2csc(N)n2)C(=O)N1S(=O)(=O)O [Aztreonam] | 1.12 | 0.844 | 0.966 | 1.05 |
| Cc1c(Cl)cccc1Nc1ccccc1C(=O)O [Tolfenamic acid] | 1.11 | 0.899 | 0.883 | 1.07 |
| CC(C)(C)NC[C@H](O)c1ccc(O)c(CO)c1 [Levalbuterol hydrochloride] | 1.06 | 0.875 | 2.07 | 0.942 |
| CN(C)CCOC(C)(c1ccccc1)c1ccccn1 (stereo not given) [Doxylamine succinate] | 1.07 | 0.777 | 1.21 | 0.893 |
| NCc1ccc(S(N)(=O)=O)cc1 [Mafenide hydrochloride] | 1.03 | 0.732 | 1.2 | 1.02 |
| COC(=O)C1=C(C)NC(C)=C(C(=O)OCC(C)C)C1c1ccccc1[N+](=O)[O-] (stereo not given) [Nisoldipine] | 0.293 | 0.742 | 0.754 | 0.44 |
| CNCCc1ccccn1 [Betahistine mesylate] | 1.06 | 0.977 | 0.971 | 1.02 |
| O=C1CN(/N=C/c2ccc([N+](=O)[O-])o2)C(=O)N1 [Nitrofurantoin] | 0.861 | 0.825 | 0.873 | 0.749 |
| CO[C@@]1(NC(=O)Cc2cccs2)C(=O)N2C(C(=O)O)=C(COC(N)=O)CS[C@@H]21 [Cefoxitin sodium salt] | 0.792 | 0.932 | 0.817 | 1.04 |
| CC(C)[C@H]1CC[C@H](C(=O)N[C@H](Cc2ccccc2)C(=O)O)CC1 [Nateglinide] | 1.02 | 1.01 | 0.776 | 1 |
| Cc1cn([C@H]2C[C@H](N=[N+]=[N-])[C@@H](CO)O2)c(=O)[nH]c1=O [Zidovudine, AZT] | 1.17 | 1.03 | 1.15 | 0.808 |
| CC(CCc1ccccc1)NCC(O)c1ccc(O)c(C(N)=O)c1 (stereo not given) [Labetalol hydrochloride] | 1.24 | 0.769 | 1.41 | 0.83 |
| O=C1[C@H](CC[C@H](O)c2ccc(F)cc2)[C@@H](c2ccc(O)cc2)N1c1ccc(F)cc1 [Ezetimibe] | 0.942 | 0.673 | 0.8 | 0.973 |
| CN(C)/N=N/c1[nH]cnc1C(N)=O [Dacarbazine] | 1.15 | 0.873 | 0.514 | 1.08 |
| OCCN1CCN(CCCN2c3ccccc3Sc3ccc(C(F)(F)F)cc32)CC1 [Fluphenazine dihydrochloride] | 1.07 | 1.07 | 0.693 | 0.056 |
| CCN(CCCc1ccccc1)CCCc1ccccc1 [Alverine citrate salt] | 1.38 | 0.756 | 1.04 | 0.786 |
| CCOC(=O)[C@H](CCc1ccccc1)N[C@@H](C)C(=O)N1Cc2ccccc2C[C@H]1C(=O)O [Quinapril hydrochloride] | 0.871 | 0.818 | 1.12 | 1.12 |
| COC(c1ccccc1)(c1ccccc1)[C@H](Oc1nc(C)cc(C)n1)C(=O)O [Ambrisentan] | 0.888 | 0.925 | 0.672 | 0.971 |
| CC(C)(C)C(=O)OCOC(=O)[C@@H]1N2C(=O)[C@@H](NC(=O)[C@H](N)c3ccccc3)[C@H]2SC1(C)C [Pivampicillin] | 1.01 | 1.05 | 0.858 | 0.861 |
| COc1ccc2c(c1)c(CC(=O)OCC(=O)O)c(C)n2C(=O)c1ccc(Cl)cc1 [Acemetacin] | 0.957 | 1.02 | 0.924 | 1.01 |
| CCN(CC)C(=O)C1(c2ccccc2)CC1CN (stereo not given) [Milnacipran hydrochloride] | 1.09 | 0.909 | 1.02 | 0.973 |
| OC(Cn1cncn1)(Cn1cncn1)c1ccc(F)cc1F [Fluconazole] | 1.1 | 0.951 | 1.11 | 0.851 |
| CC(C)NC(=N)NC(=N)Nc1ccc(Cl)cc1 [Proguanil hydrochloride] | 1.33 | 0.867 | 0.897 | 0.85 |
| COc1c(O[C@@H]2O[C@H](CO)[C@@H](O)[C@H](O)[C@H]2O)cc2c(c1OC)-c1ccc(SC)c(=O)cc1[C@@H](NC(C)=O)CC2 [Thiocolchicoside] | 1.53 | 1.09 | 0.983 | 0.96 |
| CC1(C)OC(=O)NC1=O [Dimethadione] | 1.08 | 0.937 | 0.926 | 0.786 |
| Nc1nc(/C(=C/CC(=O)O)C(=O)N[C@@H]2C(=O)N3C(C(=O)O)=CCS[C@H]23)cs1 [Ceftibuten] | 1.22 | 1.01 | 0.856 | 1.12 |
| C[C@@H](O)[C@H]1C(=O)N2C(C(=O)O)=C(S[C@@H]3CN[C@H](C(=O)N(C)C)C3)[C@H](C)[C@H]12 [Meropenem] | 1.06 | 0.856 | 0.835 | 0.79 |
